Measured values published in PubChem BioAssay AID624417 (National Center for Advancing Translational Sciences (NCATS), 2012).
“And” between values parts separate entries of the source, which are not always exact repeats. Identical values can stand only once. Among all 410,000 compounds or so, about 6,400 (1.6%) were called active. Inconclusive results, whose numbers are uncertain, are shown with a selection of clear calls. The call rests on the fitted dose curve; in most records, active means well fitted inhibition curve with a large enough effect; inconclusive means small, poorly fitted or top-dose-only effect; inactive means no such curve, though single readings can be large or run the other way. A potency beside an inconclusive call is a rough fit, not a confirmed value.

target: Glucagon-like peptide 1 receptor (Homo sapiens) (UniProt P43220); experiment: qHTS of GLP-1 Receptor Inverse Agonists (Inhibition Mode); settings: HEK293 GLP-1R CRE-luciferase, luminescence, 24 h, GLP-1R form is constitutively active; activity change, negative = inhibition: at 38.3 µM (top of the series) unless noted; further: nearly all actives have a fitted effect of over 55% in size
In short: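 Cells are plated, allowed 12 hours at 37 deg C, then treated with compounds for 24 hr before luciferase detection reagent is added and luminescence is read after 12 min at room temperature. The HEK293 line carries constitutively active GLP-1R with a cAMP-responsive reporter.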
On the % scale 0 is the no-effect control and ±100 the full control effect; potency means the concentration at half of the fitted maximal effect; tags describe the fitted curve by direction and shape.

Sequence of UniProt P43220 (P43220 whole entry, looked up): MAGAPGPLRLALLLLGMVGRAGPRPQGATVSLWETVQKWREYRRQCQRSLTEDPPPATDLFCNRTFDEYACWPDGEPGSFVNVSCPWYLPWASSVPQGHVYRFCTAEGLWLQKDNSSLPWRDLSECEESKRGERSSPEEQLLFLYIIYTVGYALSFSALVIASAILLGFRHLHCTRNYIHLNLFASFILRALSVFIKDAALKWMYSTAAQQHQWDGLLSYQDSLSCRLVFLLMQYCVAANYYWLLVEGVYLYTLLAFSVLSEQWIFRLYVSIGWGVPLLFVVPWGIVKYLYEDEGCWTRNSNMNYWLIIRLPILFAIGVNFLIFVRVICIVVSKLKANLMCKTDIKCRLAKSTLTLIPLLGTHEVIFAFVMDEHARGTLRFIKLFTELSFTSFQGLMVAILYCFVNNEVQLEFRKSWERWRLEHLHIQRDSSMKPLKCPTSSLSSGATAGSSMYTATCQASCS

Compound | Potency | activity change, negative = inhibition
Cc1ccc(/C=C/C(=O)NC2=NCCS2)cc1 | inconclusive: 11.2 µM [inhibitor, partial curve, poor fit] | 
C/C(=C\c1ccccc1)CN1CCC(C(=O)N2CCCC(C)C2)CC1 (stereo not drawn) | inconclusive: 7.08 µM [inhibitor, partial curve, poor fit] | 
Cc1cc(C)nc(N(C#N)CN2C(=O)c3ccccc3S2(=O)=O)n1 |  | inactive: 1.29%
Cc1cccn2c(CNC3CCCc4ccccc43)c(C(=O)N3CCCCC3)nc12 (stereo not drawn) | inconclusive: 17.8 µM [inhibitor, single point] | 
CC1Cc2ccccc2N1C(=O)CSc1nnc(N)s1 (stereo not drawn) | inconclusive: 2.51 µM [inhibitor, full curve, poor fit] | 
COc1ccc(CCC(C)NCC2CCCCC2)cc1 (stereo not drawn) | inconclusive: 28.2 µM [inhibitor, single point] | 
c1ccc(CSc2ncnc3c2oc2ccccc23)cc1 | inconclusive: 20 µM [inhibitor, single point] | 
Cc1cccc(NC(=O)c2sc3nc(C)nc(N4CCOCC4)c3c2C)c1 |  | inactive: 6.67%
CC(C)c1ccccc1OCCCCCN1CCOCC1 | inconclusive: 11.2 µM [inhibitor, partial curve, poor fit] | 
COc1cccc(/C=C2\SC(=O)N(CCC(=O)N3CCCCC3CCO)C2=O)c1 (stereo not drawn) | inconclusive: 22.4 µM [inhibitor, single point] | 
CCOC(=O)N1CCN(C(=S)Nc2cccc(C)c2)CC1 |  | inactive: 5.56%
Cc1c(C(=O)N2CCN(C)CC2)oc2ccc(Br)cc12 |  | inactive: -5.77%
Cc1ccc(NC(=S)NNC(=O)CSc2nnc(-c3ccc(Cl)cc3)n2C2CCCCC2)cc1 |  | inactive: -12.5%
Cc1cccc(N/N=C2/COC(C)(C)CC2=O)c1 | inconclusive: 10 µM [inhibitor, single point] | 
COc1ccc(CNC(=O)Cn2nc(C)c3c(C)n(-c4ccc(C)cc4)nc3c2=O)cc1OC | inconclusive: 2.24 µM [inhibitor, full curve, poor fit] | 
COC(=O)CN1C(=S)N(c2ccc(Cl)cc2)C(=O)C1CC(=O)Nc1ccc(F)cc1 (stereo not drawn) | inconclusive: 28.2 µM [inhibitor, single point] | 
Cc1oc2cc(Br)c(O)c(Br)c2c1-c1ccccc1 |  | inconclusive: -32.7% [inhibitor]
COc1ccccc1NC(=O)CC1SC(=N)N(c2ccccc2)C1=O (stereo not drawn) |  | inactive: -11.7%
CCOP(=O)(OCC)C(Nc1cccc([N+](=O)[O-])c1)c1ccc(N(C)C)cc1 (stereo not drawn) | inconclusive: 28.2 µM [inhibitor, single point] | 
O=C(NCCCN1CCOCC1)c1cc(-c2ccc3c(c2)OCO3)nc2ccccc12 | inconclusive: 11.2 µM [inhibitor, single point] | 
CCCCCCNc1nc(Cl)nc(NC(C)(C)CO)n1 | inconclusive: 28.2 µM [inhibitor, single point] | 

Compound | Potency | activity change, negative = inhibition
O=c1cc(-c2ccccc2)c2ccc(O)cc2o1 | inconclusive: 28.2 µM [inhibitor, single point] | 
CCc1ccc(CNC(=O)c2cnc3sc(N(CC)CC)nn3c2=O)cc1 |  | inactive: -3.79%
C=CCc1cc(OC)ccc1OCC(O)CN1CCN(c2ccc(OC)cc2)CC1 (stereo not drawn) | inconclusive: 31.6 µM [inhibitor, partial curve, poor fit] and inconclusive: 28.2 µM [inhibitor, single point] | 
Cc1ccc(CCNC(=O)c2ccc(CS(=O)(=O)c3ccccc3C)o2)cc1 | inconclusive: 10 µM [inhibitor, partial curve] | 
CCN(CC)S(=O)(=O)c1ccc(N2CCN(C)CC2)c(NC(=O)CSCC(=O)Nc2cccc(C)c2)c1 | inconclusive: 28.2 µM [inhibitor, single point] | 
COc1ccccc1NC(=O)C(=O)NCC(c1ccco1)N1CCc2ccccc2C1 (stereo not drawn) | inconclusive: 11.2 µM [inhibitor, single point] | 
Cc1cccc(NC(=O)CSc2nnc(-c3cc(C)n(-c4ccccc4)c3C)o2)c1C | inconclusive: 10 µM [inhibitor, partial curve, poor fit] | 
CCOc1ccccc1NC(=S)N1CCN(c2cccc(C)c2C)CC1 | inconclusive: 8.91 µM [inhibitor, partial curve, poor fit] | 
COc1ccc(/C=C2\CCC(C3CCCC3)C2=O)cc1Cn1cccn1 (stereo not drawn) | inconclusive: 28.2 µM [inhibitor, single point] | 
Cc1ccc(S(=O)(=O)N2CCN(C(=O)c3ccc(Br)o3)CC2)c(C)c1 | inconclusive: 5.01 µM [inhibitor, partial curve] | 
COc1cc(-c2nnc(SCC(=O)Nc3cccc(C#N)c3)o2)cc(OC)c1OC |  | inactive: 14.1%
Cc1cccc(NC(=O)N2CCN(Cc3ccc(Cl)cc3)CC2)c1 | inconclusive: 11.2 µM [inhibitor, partial curve, poor fit] | 
CC(C(=O)NCc1ccc(Cl)cc1)n1ccc2cc(S(=O)(=O)N3CCCC3)ccc21 (stereo not drawn) | inconclusive: 12.6 µM [inhibitor, partial curve, poor fit] | 
Cc1cc(/C=C(\C#N)C(=O)OCC(=O)Nc2ccc(OC(F)F)cc2)c(C)n1CC(C)C | inconclusive: 10 µM [inhibitor, single point] | 
CN(C)CC(CCCCC(CN(C)C)C(=O)c1ccccc1)C(=O)c1ccccc1 (stereo not drawn) | inconclusive: 3.98 µM [inhibitor, partial curve] | 
COc1ccc(CCN(C)CCc2ccc(OC)c(OC)c2)cc1OC |  | inactive: 33.5%
CCOC(=O)[C@@H]1[C@H]2COc3cc(OC)ccc3[C@H]2N2C(=O)N(c3cccc(Cl)c3)C(=O)[C@@]12C | inconclusive: 8.91 µM [inhibitor, partial curve] | 
Cc1ccc(-c2nnc3ccccc3c2C(=O)Nc2cccc(C(F)(F)F)c2)cc1 |  | inactive: 13.9%
Cc1cc(N2CCN(C(=O)c3[nH]c(C(F)(F)F)nc3-c3ccccc3)CC2)c2ccccc2n1 | inconclusive: 0.794 µM [inhibitor, full curve, poor fit] | 
CCc1ccc(C(O)(CC)C(CN2CCOCC2)c2ccccc2)cc1 (stereo not drawn) |  | inconclusive: -85.4% [inhibitor]
CCCN(CC(=O)Nc1ccccc1OC)C(=O)Cc1ccc2c(c1)CCC2 | inconclusive: 10 µM [inhibitor, partial curve] | 

Compound | Potency | activity change, negative = inhibition
NC(=O)N1CCC2(CC1)NC(=O)N(c1ccccc1)N2 | inconclusive: 1.41 µM [inhibitor, full curve, poor fit] | 
Cc1cc(Nc2cccc(C(F)(F)F)c2)nc2ccc(NC(=O)c3cncc(Br)c3)cc12 | inconclusive: 2 µM [inhibitor, full curve, poor fit] | 
COc1ccc(NC(=S)NCCC2=CCCCC2)cc1OC | inconclusive: 12.6 µM [inhibitor, single point] | 
Nc1ccccc1Nc1cccc(C(F)(F)F)c1 | inconclusive: 20 µM [inhibitor, single point] | 
Cn1c(C2CCCCC2)nc2ccccc21 | inconclusive: 15.8 µM [inhibitor, partial curve, poor fit] | 
CCOc1ccccc1N(CC)C(=O)c1cc2c(=O)n(CC)c3ccccc3c2s1 | active: 10 µM | 
CCOC(=O)c1noc2nc(C)n(CC(=O)Nc3ccc(Br)cc3C)c(=O)c12 | inconclusive: 10 µM [inhibitor, partial curve, poor fit] | 
CCCCCC(=O)Cc1cc(O)cc2c1C(=O)Oc1cc(O)c(C(=O)O)c(CCCCC)c1O2 | inconclusive: 28.2 µM [inhibitor, single point] | 
COc1cccc(NC(=O)CN(C)CC(=O)Nc2ccc(Cl)cc2[N+](=O)[O-])c1 | inconclusive: 8.91 µM [inhibitor, single point] | 
COc1ccc(NC(=O)c2cc(-c3cc(F)ccc3OC(C)C)n[nH]2)cc1OC | inconclusive: 11.2 µM [inhibitor, partial curve, poor fit] | 
Cc1ccc(C(C)NC(=S)NCc2ccc(F)cc2)c(C)c1 (stereo not drawn) | inconclusive: 10 µM [inhibitor, partial curve, poor fit] | 
CCC(O)c1nc2ccccc2n1CCOc1cc(C)cc(C)c1 (stereo not drawn) | inconclusive: 28.2 µM [inhibitor, single point] | 
Cc1ccc(S(=O)(=O)N(C)c2ccc(OC(=O)CN3C(=O)NC(C)(c4ccccc4)C3=O)cc2)cc1C (stereo not drawn) | inconclusive: 28.2 µM [inhibitor, single point] | 
Cc1ccc(-c2cc(C(=O)Nc3cc(C)on3)c3ccccc3n2)c(C)c1 | inconclusive: 10 µM [inhibitor, partial curve, poor fit] | 
COc1ccc(NC(=O)CSc2n[nH]c(-c3ccccc3)n2)cc1Cl |  | inactive: 10.6%
CCC(C)n1c(SCc2ccc([N+](=O)[O-])cc2)nc2ccsc2c1=O (stereo not drawn) | inconclusive: 12.6 µM [inhibitor, single point] | 
Cn1c(=O)c(C(=O)COC(=O)c2cc(C3CC3)nc3ccccc23)c(N)n(Cc2ccccc2)c1=O | inconclusive: 12.6 µM [inhibitor, partial curve, poor fit] | 
C[C@H](CO)N1C[C@H](C)[C@@H](CN(C)Cc2ccccc2)Oc2c(NS(=O)(=O)c3ccc(F)cc3)cccc2C1=O |  | inactive: 21.4%
O=C(CN1CCN(c2ccccn2)CC1)Nc1ccc(OC(F)(F)F)cc1 | inconclusive: 2.51 µM [inhibitor, full curve] | 
Cc1cc(C)n(CC(C)NC(=O)c2cc(COc3ccc(F)c(F)c3)on2)n1 (stereo not drawn) | inconclusive: 11.2 µM [inhibitor, single point] | 
Cc1ccc(Sc2cc(C(=O)NCCCN(C)C)c3ccccc3n2)cc1 | inconclusive: 10 µM [inhibitor, partial curve, poor fit] | 
